# Data reported in PubChem BioAssay AID485281 (National Center for Advancing Translational Sciences (NCATS), 2010).
# About 260 (0.074%) of roughly 350,000 compounds were called active. The shares of active, inactive and inconclusive entries below differ from those in the screen. Calls follow the shape of the dose curve; as a rule, active = well fitted inhibition curve with a large enough effect; inconclusive = small, poorly fitted or top-dose-only effect; inactive = no such curve, though single readings can be large or run the other way. Where the call is inconclusive, the potency comes from a doubtful curve fit.
# Biological target: Ferritin light chain (Equus caballus) (UniProt P02791)
# Assay: qHTS Assay for Identification of Novel General Anesthetics; also: nearly all actives have a fitted effect of over 20% in size
# Details: apoferritin/1-aminoanthracene competitive binding, fluorescence; activity change, negative = displacement: at 77.5 µM (top of the series)
# Summary of the method: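 In PBS, apoferritin at 10 uM is loaded with 1-AMA from a 50% saturated solution. After 10 min of compound exposure at ambient temperature, reduced 535 nm fluorescence indicates probe displacement.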
# % is scaled to controls: 0 for no effect and ±100 for the full control effect; potency is read from the fitted curve at half-maximal effect; tags tell the direction and shape of the fitted curve.
# UniProt P02791, sequence (P02791 whole entry, looked up): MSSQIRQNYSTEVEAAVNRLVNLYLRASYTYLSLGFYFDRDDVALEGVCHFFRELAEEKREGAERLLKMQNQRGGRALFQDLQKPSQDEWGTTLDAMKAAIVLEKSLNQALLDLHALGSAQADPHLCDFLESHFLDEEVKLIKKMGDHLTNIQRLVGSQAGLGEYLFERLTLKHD
Compound,Potency,"activity change, negative = displacement"
Cc1c(CCN)ccc2c1[nH]c1ccccc12,"inconclusive: 14.1 µM [inhibitor, partial curve]",–
O=C(NC(=S)Nc1ccccc1N1CCCC1)c1ccccc1Br,"inconclusive: 15.8 µM [inhibitor, partial curve, poor fit]",–
Cc1ccc2c(c1)CC1(CN2C)C(=O)NC(=O)N(C(C)C)C1=O (centres undefined),–,inactive: -4.55%
C[C@@]12CC3CC(N)(C1)C[C@@](C)(C3)C2,–,inactive: 7.63% [at 29.3 µM]
CCOC(=O)N1CCN(C(=O)c2ccc3c(=O)n(CCC4=CCCCC4)c(=S)[nH]c3c2)CC1,"inconclusive: 0.794 µM [inhibitor, full curve, poor fit]",–
O=c1c(C=NCCN2CCNCC2)c(O)n(C2CCCCC2)c(=O)n1C1CCCCC1,"inconclusive: 31.6 µM [inhibitor, partial curve]",–
CCCC[C@@H](C)[C@@H](OC(=O)C[C@@H](CC(=O)O)C(=O)O)[C@H](C[C@@H](C)CCCCCC[C@@H](O)C[C@H](O)[C@H](C)N)OC(=O)C[C@@H](CC(=O)O)C(=O)O,–,inactive: -10.1%
O=C(OCc1ccc(Cl)c(Cl)c1)c1ccccn1,"inconclusive: 22.4 µM [inhibitor, partial curve]",–
O=C1NC(=O)N(Cc2ccccc2)C(=O)/C1=C\c1ccco1,–,inactive: -19.8%
O=C1NC(=O)N(c2ccc(Br)cc2)C(=O)/C1=C/c1ccsc1,–,inactive: -12.1%
CCOc1ccc(N2C(=O)/C(=C\c3cccs3)C(=O)NC2=S)cc1,–,inactive: -9.35%
CC1CCCC(C)N1/N=C/c1c[nH]c2ccc(Br)cc12 (centres undefined),"inconclusive: 25.1 µM [inhibitor, partial curve]",–
Fc1ccc(CCNCc2ccccc2Cl)cc1,–,inactive: -23.8%
C[N+]1(CC(=O)OCCCc2ccccc2)CCCCC1,"inconclusive: 39.8 µM [inhibitor, single point]",–
CC(C)(C)c1ccc(OC(=O)N2CCCCC2)cc1,"inconclusive: 35.5 µM [inhibitor, partial curve]",–
N=c1c[n+](CC23CC4CC(CC(C4)C2)C3)[n-]o1,"inconclusive: 44.7 µM [inhibitor, partial curve, poor fit]",–
Nc1ccc([As](=O)(O)O)cc1,inactive,–
COc1ccccc1C1CC2CCC(C1OC(C)=O)N2Cc1ccccc1 (centres undefined),–,inactive: -10.5%
CCCOP(=O)(OCCC)C(Nc1ccc(C(C)C)cc1)c1ccc([N+](=O)[O-])cc1 (centres undefined),"inconclusive: 17.8 µM [inhibitor, partial curve]",–
CSCCC(N=Cc1c(O)n(-c2ccc(Cl)cc2)c(=O)[nH]c1=O)C(=O)OC(C)(C)C (centres undefined),"inconclusive: 31.6 µM [inhibitor, partial curve]",–
CCCOc1ccc(N2C(=O)CC(N3CC=C(c4ccccc4)CC3)C2=O)cc1 (centres undefined),"inconclusive: 50.1 µM [inhibitor, single point]",–
COc1ccccc1Cn1c(SCC(=O)C(C)(C)C)nc2cc(C(=O)N3CCC4(CC3)OCCO4)ccc2c1=O,"inconclusive: 3.98 µM [inhibitor, partial curve]",–

Compound,Potency,"activity change, negative = displacement"
C[C@@]12CCC3C(CCC4=CC(=O)CC[C@]43C)C1CCC2O (some centres undefined),"inconclusive: 28.2 µM [inhibitor, partial curve]",–
COC(=O)CSC1=NP(=S)(SCC(=O)OC)N2CCCC2=C1C#N (centres undefined),"inconclusive: 50.1 µM [inhibitor, single point]",–
CC(C)CNC(=O)c1c(N)n(Cc2ccco2)c2nc3ccccc3nc12,–,inactive: 291%
C/C=C(\C)C(=O)N[C@@H](c1ccccc1)[C@@H](O)C(=O)O[C@H]1C[C@@]2(O)[C@@H](OC(=O)c3ccccc3)C3[C@](C)(C(=O)[C@H](O)C(=C1C)C2(C)C)[C@@H](O)C[C@H]1OC[C@@]31OC(C)=O (some centres undefined),"inconclusive: 35.5 µM [inhibitor, partial curve]",–
CN(C)C(=O)Oc1ccc2ccccc2c1Cl,"inconclusive: 22.4 µM [inhibitor, partial curve]",–
CCC(C)n1c(O)c(/C=N/Nc2ccccc2)c(=O)[nH]c1=S (centres undefined),"inconclusive: 28.2 µM [inhibitor, single point]",–
CCOC(=O)CSc1ncnc2c1cnn2-c1ccc(C)cc1C,"inconclusive: 28.2 µM [inhibitor, partial curve]",–
Cc1cc(Cl)ccc1C(=O)C1CCCN(Cc2ccon2)C1 (centres undefined),"inconclusive: 31.6 µM [inhibitor, single point]",–
CN1C(=O)CCS(=O)(=O)[C@@H]1c1ccc(Cl)cc1,–,inactive: 10.8% [at 29.3 µM]
Cc1ccc(NC(=O)O/N=C/c2cccc([N+](=O)[O-])c2)cc1,"inconclusive: 25.1 µM [inhibitor, single point]",–
CCN(CC)C(=O)c1ccc2c(c1)C1C(Cl)C(Sc3ccccc3[N+](=O)[O-])CC1C(C(=O)O)N2 (centres undefined),"inconclusive: 31.6 µM [inhibitor, single point]",–
O=[N+]([O-])c1ccc(O)c([N+](=O)[O-])c1,–,inactive: -18.5%
CCOC(=O)c1c(/N=C/c2c(O)n(-c3cccc(C)c3)c(=O)[nH]c2=O)sc2c1CCCC2,–,inactive: -9.93%
CC(C)C/C(=N/O)c1c[nH]c2ccccc12,"inconclusive: 35.5 µM [inhibitor, single point]",–
CCOC(=O)C(O)(c1ccc(NC(=S)NC(=O)c2ccc(Cl)cc2Cl)c(C)c1)C(F)(F)F (centres undefined),"inconclusive: 28.2 µM [inhibitor, partial curve]",–
COc1ccc(N2C(=O)/C(=C/c3ccc(N(C)C)o3)C(=O)NC2=S)cc1,–,inactive: 0.441%
O=C(N/N=C\c1ccc(COc2ccc([N+](=O)[O-])cc2)o1)c1cccc(Cl)c1,"inconclusive: 3.55 µM [inhibitor, full curve, poor fit]",–
CCCCNS(=O)(=O)c1ccc(OCC(=O)N2CCN(Cc3ccc4c(c3)OCO4)CC2)cc1,–,inactive: -13.1%
CC(C)CCCC(C)C1CCC2C3=CC[C@@H]4CC(O)CC[C@@]4(C)C3CC[C@]21C (some centres undefined),"inconclusive: 35.5 µM [inhibitor, single point]",–
OC(CN1CC=C(c2ccccc2)CC1)c1ccccc1 (centres undefined),–,inactive: -13.2%
CC(C1OC(C)(C)C(O)C1O)C1CC[C@@]2(C)C3=CCC4C(C)(C)C(=O)CC[C@]4(C)C3CC[C@@]12C (some centres undefined),"inconclusive: 5.01 µM [inhibitor, full curve]",–
C#CCN(C)[C@H](C)Cc1ccccc1,"inconclusive: 22.4 µM [inhibitor, partial curve]",–

Compound,Potency,"activity change, negative = displacement"
CCOc1ccc(S(=O)(=O)NCc2ccc3c(c2)OCO3)cc1C,"inconclusive: 25.1 µM [inhibitor, single point]",–
CNC(=O)Oc1ccc2c(c1)C(=O)c1ccccc1CO2,"inconclusive: 56.2 µM [inhibitor, single point]",–
CN(C)CCN(C(=O)c1ccc(S(=O)(=O)N2CCc3ccccc32)cc1)c1nc2ccc(F)cc2s1,"inconclusive: 50.1 µM [inhibitor, single point]",–
Clc1cccc(/C=N\Nc2nccs2)c1,"inconclusive: 44.7 µM [inhibitor, single point]",–
C/C=C(\C)C(=O)N[C@@H](c1ccccc1)[C@@H](O)C(=O)O[C@H]1C[C@@]2(O)[C@@H](OC(=O)c3ccccc3)C3[C@](C)(C(=O)[C@H](OC(C)=O)C(=C1C)C2(C)C)[C@@H](O)C[C@H]1OC[C@@]31OC(C)=O (some centres undefined),"inconclusive: 31.6 µM [inhibitor, single point]",–
O=C1NC(=O)C(=Cc2ccc(SC3CCCCC3)o2)C(=O)N1,"inconclusive: 39.8 µM [inhibitor, partial curve]",–
CC(C)Oc1ccc(CNC(=O)C2CCCN(S(=O)(=O)c3ccc4c(ccn4C)c3)C2)cc1 (centres undefined),–,inactive: 95.7%
CCCCOc1ccc(CN2C(=O)C(=O)c3cc(C)ccc32)cc1OC,"inconclusive: 22.4 µM [inhibitor, partial curve]",–
CCCCn1c(O)c(C(CC)=NC(C)c2ccccc2)c(=O)[nH]c1=O (centres undefined),"inconclusive: 35.5 µM [inhibitor, partial curve]",–
c1ccc(CNc2ncnc3nc[nH]c23)cc1,"inconclusive: 50.1 µM [inhibitor, single point]",–
CCC(=O)C1=C(c2cccc([N+](=O)[O-])c2)N(C(=O)CC)n2c(nnc2C2CCCCC2)S1,"inconclusive: 22.4 µM [inhibitor, partial curve]",–
C=C(C)[C@@]12OC3(c4ccccc4)O[C@@H]1[C@@H]1[C@@H]4O[C@]4(CO)[C@@H](O)[C@]4(O)C(=O)C(C)=C[C@H]4[C@@]1(O3)[C@H](C)[C@H]2OC(=O)/C=C/C=C/c1ccccc1,–,inactive: -21.3%
COc1ccccc1-n1c(O)c(/C=N/NC(=S)Nc2ccccc2)c(=O)[nH]c1=S,–,inactive: -11.2%
COc1ccc(NC2=NC(C)(C)CS2)cc1,"inconclusive: 31.6 µM [inhibitor, single point]",–
O=C(NCc1ccccc1)c1cccn(Cc2cccc(Cl)c2)c1=O,"inconclusive: 50.1 µM [inhibitor, single point]",–
COc1ccc([N+](=O)[O-])cc1N=Cc1c(O)n(CCc2ccccc2)c(=O)n(C(C)C)c1=O,"inconclusive: 12.6 µM [inhibitor, partial curve]",–
O=C(CN1C(=O)CN=C(c2ccccc2Cl)c2cc(Cl)ccc21)NCc1ccco1,"inconclusive: 28.2 µM [inhibitor, partial curve]",–
CCN(CCNc1ccc([N+](=O)[O-])c2cccnc12)S(=O)(=O)c1ccc(Cl)cc1,"inconclusive: 50.1 µM [inhibitor, partial curve, poor fit]",–
CC(C)c1ccc2c(c1O)CCC1C3=C(CC[C@]21C)C(=O)OC3 (some centres undefined),–,inactive: -15%
O=C1NC(=O)N(c2cccc(Br)c2)C(=O)/C1=C/c1ccsc1,–,inactive: -11.3%
